Reference: the RNAGym collection of RNA variant scans (doi:10.1093/nar/gkz1192)
The source gives no read counts; variants with many changes may rest on few reads.

B1: CPEB3 Ribozyme (parent)
chain: UAACAGGGGGCCACAGCAGAAGCGUUCACGUCGCAGCCCCUGUCAGAUUCUGGUGAAUCUGCGAAUUCUGCUGUAUAUCUC

Variants of: B1
Assay: self-cleavage, relative activity (ratio to wild type); higher = more cleavage; in vitro, sequencing
Method in brief: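 Relative activity compares each variant's cleaved/total read fraction with that of the unmutated ribozyme. To get these fractions, barcoded CPEB3 ribozyme libraries from rounds of error-prone PCR were transcribed with T7 RNA polymerase for 5 hours at 37°C and then given 15 min of DNase I treatment before EDTA was added. The RNAs were reverse transcribed with template switching and sequenced on Illumina, and DNA sequencing linked barcodes to variants. A minimum of 5 reads applied, and three batches were averaged.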
G22U U48G U49A G52A U58C U69A gave a self-cleavage of 0.07.
Work on G22U U54C A56G U58C yielded a self-cleavage of 0.07.
For G22U U69A C79U, the self-cleavage was 0.16.
Variant C23A A28G U54C has a self-cleavage of 0.19.
In the case of C23A A35U U41A A45G U72G, the self-cleavage is reported as 0.67.
Variant C23A A35U U49A U69G U72G U78A has a self-cleavage of 0.07.
Variant C23A A45G C50G U54A A57G has a self-cleavage of 0.14.
Work on C23A C32A A35U U54C yielded a self-cleavage of 0.16.
C23A C34A A57U U69C showed a self-cleavage of 0.13.
Variant C23A C37U C44U A77G has a self-cleavage of 0.1.
C23A G36C A77G gave a self-cleavage of 0.19.
For C23A U26C U80C, the self-cleavage was 0.51.
For C23A U31A A35C G52A U54C C68U, the self-cleavage was 0.05.
C23A U31A A56G U60C showed a self-cleavage of 0.09.
With C23A U31C U43C U72C the self-cleavage was 0.02.
Work on C23A U41C U48C U72C yielded a self-cleavage of 0.07.
C23A U43C U54C gave a self-cleavage of 0.09.
Work on C23A U49C G53A U69C U78A yielded a self-cleavage of 0.18.
C23A U51C G52U U54A U67C U80A C81U gave a self-cleavage of 0.05.
Work on C23A U69C A75G yielded a self-cleavage of 0.13.
C23G A28G U41A A56G U72G showed a self-cleavage of 0.05.
With C23G A28U U49A U54A U78C the self-cleavage was 0.14.
In the case of C23G A47G U80G, the self-cleavage is reported as 0.07.
With C23G A56G A57G the self-cleavage was 0.08.
In the case of C23G C29A U76C U78A, the self-cleavage is reported as 0.31.
Variant C23G C34G C68G has a self-cleavage of 0.08.
Variant C23G U25C C68U U78A has a self-cleavage of 0.04.
In the case of C23G U25G A47G, the self-cleavage is reported as 0.23.
Variant C23G U26C U58C has a self-cleavage of 0.23.
C23G U31A U72G U80C showed a self-cleavage of 0.04.
C23G U31G U43C U51C G52A gave a self-cleavage of 0.05.
With C23G U31G U74C the self-cleavage was 0.22.
Variant C23G U41A A45U U54A A77G U78A has a self-cleavage of 0.06.
For C23G U41A A47G, the self-cleavage was 0.48.
With C23G U41A A56G the self-cleavage was 0.18.
Work on C23G U41C A45U U48C A77G yielded a self-cleavage of 0.34.
For C23G U41C A57G, the self-cleavage was 0.15.
Variant C23G U41C G63C has a self-cleavage of 0.07.
Variant C23G U41C U51C A56G U76C has a self-cleavage of 0.24.
In the case of C23G U41G A56U A64G, the self-cleavage is reported as 0.09.
Variant C23G U54A C81G has a self-cleavage of 0.28.
In the case of C23U A28G A35G U51C U72C, the self-cleavage is reported as 0.13.
In the case of C23U A28G C34U C37U U76C, the self-cleavage is reported as 0.07.
C23U A28G U66C U78A showed a self-cleavage of 0.03.
C23U A35G U72A U78C showed a self-cleavage of 0.68.
For C23U A35U G55A A56G C68U G70A U80C, the self-cleavage was 0.14.
C23U A45G C50U A56G gave a self-cleavage of 0.18.
C23U A45G G73C gave a self-cleavage of 0.35.
Work on C23U A47G A65G yielded a self-cleavage of 0.07.
Variant C23U A47G A75G has a self-cleavage of 0.15.
In the case of C23U A47U U60C, the self-cleavage is reported as 0.07.
Work on C23U A56G U74A yielded a self-cleavage of 0.52.
Work on C23U A64U A65U yielded a self-cleavage of 0.13.
With C23U C32A U51A the self-cleavage was 0.21.
For C23U C32U A35G U66C A77G, the self-cleavage was 0.13.
In the case of C23U G24A U25C U31C A35U U41C A56G, the self-cleavage is reported as 0.06.
In the case of C23U G30A A35C A57G, the self-cleavage is reported as 0.09.
C23U G42A U60C C79U U80C showed a self-cleavage of 0.21.
Variant C23U U25C C34U A45G has a self-cleavage of 0.16.
C23U U26A U49A U58G U76A showed a self-cleavage of 0.11.
Variant C23U U26A U51A C59G has a self-cleavage of 0.12.
C23U U26C U31C A35G C40A A47G gave a self-cleavage of 0.09.
With C23U U26C U58A A75U U80C C81U the self-cleavage was 0.07.
For C23U U26G A28G, the self-cleavage was 0.08.
Variant C23U U31A A57G has a self-cleavage of 0.09.
Variant C23U U31C A35G A57G U60A U69C has a self-cleavage of 0.09.
Work on C23U U31G C44U U51C U54A A65U U74C yielded a self-cleavage of 0.02.
C23U U41A C44A U60A gave a self-cleavage of 0.17.
C23U U43C U48C U60A showed a self-cleavage of 0.13.
C23U U43C U48C U72C U74C gave a self-cleavage of 0.06.
With C23U U43C U66C U74C the self-cleavage was 0.11.
With C23U U48C A64G the self-cleavage was 0.08.
C23U U49G A65G showed a self-cleavage of 0.17.
Work on C23U U58A G70A yielded a self-cleavage of 0.12.
Work on C23U U58A U66A yielded a self-cleavage of 0.07.
For C23U U60A A65G, the self-cleavage was 0.12.
C23U U67C A77U showed a self-cleavage of 0.13.
G24A A28G C81A gave a self-cleavage of 0.19.
Variant G24A A28G G46A has a self-cleavage of 0.08.
With G24A A28G U31C C38U A57G U76C the self-cleavage was 0.07.
In the case of G24A A28G U41A, the self-cleavage is reported as 0.13.
With G24A A28U C44U U67C the self-cleavage was 0.12.
With G24A A28U G30U G46A U60C U80C the self-cleavage was 0.06.
Variant G24A A28U U51A has a self-cleavage of 0.16.
G24A A35G A65U A75G U76C gave a self-cleavage of 0.08.
G24A A35G U41A U72C A77G showed a self-cleavage of 0.08.
Variant G24A A45U G70C has a self-cleavage of 0.15.
G24A A47G A75U showed a self-cleavage of 0.08.
For G24A A47G U49A C50U U80C, the self-cleavage was 0.16.
For G24A A56G U66C, the self-cleavage was 0.05.
With G24A A56G U72G the self-cleavage was 0.14.
For G24A A56U U76A, the self-cleavage was 0.08.
For G24A A57G U58C U69G A77C, the self-cleavage was 0.04.
In the case of G24A A57U U78C, the self-cleavage is reported as 0.18.
G24A A64G U67C gave a self-cleavage of 0.2.
Variant G24A A65G U69A has a self-cleavage of 0.13.
G24A A75U U78C gave a self-cleavage of 0.06.
In the case of G24A C27A C39A U51A U54C A56G, the self-cleavage is reported as 0.12.
G24A C29U U41A gave a self-cleavage of 0.16.
With G24A C32A G73U the self-cleavage was 0.35.
Work on G24A C38A U51C U54C yielded a self-cleavage of 0.14.
For G24A C38G U48C U58A, the self-cleavage was 0.15.
G24A C38G U49C G73C gave a self-cleavage of 0.1.
Variant G24A C40A U48C A57G U60A has a self-cleavage of 0.12.
Variant G24A C40U U43C U54C U60C U72C has a self-cleavage of 0.11.
Work on G24A G30C A47G C50A A56U U76C yielded a self-cleavage of 0.04.
G24A G30U U41C gave a self-cleavage of 0.11.
Work on G24A G33U U69C U72G yielded a self-cleavage of 0.06.
For G24A U25A U58A U80C, the self-cleavage was 0.17.
For G24A U25C A35U, the self-cleavage was 0.2.
In the case of G24A U25C U51A, the self-cleavage is reported as 0.22.
In the case of G24A U25C U74C C81G, the self-cleavage is reported as 0.21.
For G24A U26A A35G U41C U69C, the self-cleavage was 0.06.
With G24A U26A A64C U72C U74A the self-cleavage was 0.05.
G24A U26A U48C U69C gave a self-cleavage of 0.08.
In the case of G24A U26C U69A U72C, the self-cleavage is reported as 0.08.
Variant G24A U31A A35U A65G has a self-cleavage of 0.11.
G24A U31A A47U U58C U60C A64G C81U showed a self-cleavage of 0.06.
With G24A U31C A47G the self-cleavage was 0.17.
With G24A U31C A56G C59A the self-cleavage was 0.12.
With G24A U31G C38U U48C U69A the self-cleavage was 0.12.
In the case of G24A U31G C40A A57G A64U, the self-cleavage is reported as 0.06.
G24A U31G C40G A57G A64U U74A gave a self-cleavage of 0.09.
Variant G24A U41A G42C U74C A75G has a self-cleavage of 0.05.
G24A U41C A64U U66C U69A showed a self-cleavage of 0.13.
Work on G24A U41C U67C yielded a self-cleavage of 0.28.
G24A U41G U60C U69C gave a self-cleavage of 0.1.
Work on G24A U43A U49C yielded a self-cleavage of 0.16.
In the case of G24A U48C A64G, the self-cleavage is reported as 0.08.
G24A U48C C59A U67C gave a self-cleavage of 0.15.
G24A U49C A65G U80C showed a self-cleavage of 0.09.
In the case of G24A U60G C71A, the self-cleavage is reported as 0.37.
G24A U69C U72A showed a self-cleavage of 0.1.
Variant G24A U69C U78C has a self-cleavage of 0.13.
Work on G24A U74G U78A yielded a self-cleavage of 0.17.
With G24C A35U G36C U66C the self-cleavage was 0.08.
G24C C29U G33A A65G U69C showed a self-cleavage of 0.05.
G24C C37U U54C U67C gave a self-cleavage of 0.09.
In the case of G24C U25G G36C U51C, the self-cleavage is reported as 0.07.
Work on G24C U26A U66A U72C yielded a self-cleavage of 0.14.
With G24C U26C A35C A47C U60A the self-cleavage was 0.09.
In the case of G24C U26C U41A U66C, the self-cleavage is reported as 0.1.
G24C U31C A77G showed a self-cleavage of 0.18.
G24C U31C U41A U74C gave a self-cleavage of 0.13.
G24C U41A U60A U74A gave a self-cleavage of 0.21.
Variant G24C U43C A57G has a self-cleavage of 0.08.
Work on G24C U48C A57G U67C yielded a self-cleavage of 0.15.
For G24U A45G U80C, the self-cleavage was 0.65.
Variant G24U A45U A65U has a self-cleavage of 0.2.
With G24U A65G U80G the self-cleavage was 0.37.
In the case of G24U C38G A45U, the self-cleavage is reported as 0.09.
Variant G24U C38U U48C U51A has a self-cleavage of 0.06.
For G24U U26A U43C G46U U51C, the self-cleavage was 0.11.
Variant G24U U43C A56U U80C has a self-cleavage of 0.1.
Variant U25A A28C U43C U72A U80C has a self-cleavage of 0.06.
Variant U25A A28G A35G U48C C81U has a self-cleavage of 0.1.
In the case of U25A A28G A56G U60A, the self-cleavage is reported as 0.2.
U25A A28G C40A U51A A56U U66C U78C showed a self-cleavage of 0.04.
In the case of U25A A28G U58A, the self-cleavage is reported as 0.11.
U25A A28G U72C gave a self-cleavage of 0.51.
With U25A A35C A57U the self-cleavage was 0.13.
With U25A A35G A47G U67A U74A A75U the self-cleavage was 0.05.
U25A A35G U41C G42C A57U gave a self-cleavage of 0.02.
Work on U25A A35G U41C U43A U54C A56G yielded a self-cleavage of 0.14.
U25A A35G U51A U60C U69A U80G showed a self-cleavage of 0.06.
In the case of U25A A45G A64C, the self-cleavage is reported as 0.19.
U25A A45U A56U A64U gave a self-cleavage of 0.11.
